From article PMC7819943, “Rice protein-binding microarrays: a tool to detect cis-acting elements near promoter regions in rice”
This is one part of the list.

target: T1, OsWOX13 (Oryza sativa, UniProt Q5QMM3 1-267); test: protein-binding microarray (RPBM); PBS, 2% BSA, 51.3 ng/ul salmon testes DNA, 50 uM zinc acetate, 200 nM TF, 25 C, 1 h; high values mean tight binding; conditions: protein: recombinant; tags: N-terminal polyhistidine and DsRed monomer fusion (pET32a); label: CyDye5-dUTP incorporated in the synthesized complementary strand; 3' TTTTT single-stranded linker to array surface; dsDNA, one strand shown
T1 sequence: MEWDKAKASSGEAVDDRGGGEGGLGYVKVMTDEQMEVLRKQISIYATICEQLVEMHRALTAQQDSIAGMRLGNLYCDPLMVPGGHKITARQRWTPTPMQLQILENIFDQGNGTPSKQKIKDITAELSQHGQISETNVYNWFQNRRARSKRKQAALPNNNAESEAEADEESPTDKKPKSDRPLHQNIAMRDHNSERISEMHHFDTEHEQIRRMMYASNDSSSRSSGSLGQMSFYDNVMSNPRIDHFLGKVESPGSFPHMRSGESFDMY
Method in brief: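 The binding signal is fluorescence intensity per feature, in arbitrary units, read on an Axon 4000B scanner. Polyhistidine- and DsRed-tagged transcription factors (N-terminal fusions) from E. coli BL21-CodonPlus were purified on Ni–NTA and applied at 200 nM for 1 h at 25 °C to a double-stranded, BSA-blocked custom Agilent array in buffer with 50 µM zinc acetate.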

Row | Sequence | binding signal
1 | TCGATATGATTGGGACGGCACAACCGTACATTGAAATTTTCGGAGTCACCTAGTGCAG | 25700 fluorescence intensity (a.u.)
2 | AGGTGATTTGCATCGATCTTCGAACATGGGGAAGACGCTACGGAGTCACCTAGTGCAG | 23000 fluorescence intensity (a.u.)
3 | ATGAATTGGCTATTAGATCGGCTATAGATAAATTGGAGCTCGGAGTCACCTAGTGCAG | 9140 fluorescence intensity (a.u.)
4 | CCTAATTATGAAAAGGTATAAATGCGTGATTAGAACTATACGGAGTCACCTAGTGCAG | 16500 fluorescence intensity (a.u.)
5 | CACAGCAAATTGATCTAAACAGGCCCTTATTTCACTTGCACGGAGTCACCTAGTGCAG | 38300 fluorescence intensity (a.u.)
6 | ATTTAACATTCAATTCATACCAATAGACTTCTAGTCGATACGGAGTCACCTAGTGCAG | 4550 fluorescence intensity (a.u.)
7 | GTATTGATTCTAGTTTGATTGCTACAGGAATAACTAATGACGGAGTCACCTAGTGCAG | 16700 fluorescence intensity (a.u.)
8 | GATGATTGATGGGAATATAGAGATCCCATGTTTTCCAGCTCGGAGTCACCTAGTGCAG | 61000 fluorescence intensity (a.u.)
9 | AGTGTTGATTAAAATTTCTGATTAATTACTCTACTGTTTTCGGAGTCACCTAGTGCAG | 45900 fluorescence intensity (a.u.)
10 | ACAGATTGGCCAAACTTTTGGATAGGATTAATAGAAAGTCCGGAGTCACCTAGTGCAG | 27100 fluorescence intensity (a.u.)
11 | GTAGCAATCAAATATGGGCCGGTCAATTGTTCGCGGTAGACGGAGTCACCTAGTGCAG | 4130 fluorescence intensity (a.u.)
12 | CTTAATTAATCTTTGCCCAGAACGATTAGGTCCTGGAAACCGGAGTCACCTAGTGCAG | 20700 fluorescence intensity (a.u.)
13 | ATAAAGTTTTAAACGTTAAATTAATTTTCTGGCCGAAGGGCGGAGTCACCTAGTGCAG | 8740 fluorescence intensity (a.u.)
14 | TATCTAATAAATTTATTTTCAAGTTTATAATAATAAACATCGGAGTCACCTAGTGCAG | 10400 fluorescence intensity (a.u.)
15 | ATCGGAAATTATTATTTTAATCGGCGCGGTGTCCACTGGCCGGAGTCACCTAGTGCAG | 7500 fluorescence intensity (a.u.)
16 | TTATTAAGTTAACTATAGATGATTTGGAGTCAATAGTTGGCGGAGTCACCTAGTGCAG | 10300 fluorescence intensity (a.u.)
17 | TTTGATTCTCTGTTAGTCTGATTTCCCTCCTGGTTTGAATCGGAGTCACCTAGTGCAG | 5880 fluorescence intensity (a.u.)
18 | GACATGTTCTTAATAATTGGCAGCAGATTTACTCATGTCGCGGAGTCACCTAGTGCAG | 12800 fluorescence intensity (a.u.)
19 | GGAAACTGTCTATCCATTTTGTCGGGTGATTTCTCTCTAGCGGAGTCACCTAGTGCAG | 9020 fluorescence intensity (a.u.)
20 | CGGTAGATTGAATTATTTGCTGATCTTTGCTTTCTTGAAGCGGAGTCACCTAGTGCAG | 45900 fluorescence intensity (a.u.)
21 | TACCAATTACTTGTACTGTACTAGCTAGGAGTACTGTATACGGAGTCACCTAGTGCAG | 3930 fluorescence intensity (a.u.)

Row | Sequence | binding signal
22 | ATATGTAATTTGTTTTATTATTAGACTACGTTTAATACTTCGGAGTCACCTAGTGCAG | 8720 fluorescence intensity (a.u.)
23 | ATACTATTGTAAACAAATTAATCAATTTGAATGTCGGTCTCGGAGTCACCTAGTGCAG | 3210 fluorescence intensity (a.u.)
24 | ATGATTGGTGAACTCGGCTATTGGCCAGAATAGGATATCCCGGAGTCACCTAGTGCAG | 37700 fluorescence intensity (a.u.)
25 | GGTAAGATTGATTTTGGTAGTAATCTAAACATGCCCTGGGCGGAGTCACCTAGTGCAG | 46400 fluorescence intensity (a.u.)
26 | TTAAGATAGTTGATTACCTACGCAAGAAAGAGAGATGCTTCGGAGTCACCTAGTGCAG | 7670 fluorescence intensity (a.u.)
27 | CCTATAATTGGAAACTCATTATTGTTTTGTTTTCAACTTGCGGAGTCACCTAGTGCAG | 47200 fluorescence intensity (a.u.)
28 | ACAGTAATGGGCCGGTAATTTTGGCCCAGTGGTCTTCCAACGGAGTCACCTAGTGCAG | 4460 fluorescence intensity (a.u.)
29 | CCCCTGATCTAAATACAGACTGATTATATGTTGTGATGGACGGAGTCACCTAGTGCAG | 8740 fluorescence intensity (a.u.)
30 | GAAGATTGTGATTGGATGCAAGTGAAGATAAGTGAGGAAACGGAGTCACCTAGTGCAG | 22500 fluorescence intensity (a.u.)
31 | CTGTGATAATCTGTCTTCCTGTGATACCAGCACTGTTTCCCGGAGTCACCTAGTGCAG | 3340 fluorescence intensity (a.u.)
32 | AACTTGATATCAATCTTGTTCTGGTTTTGGATTTGAATTTCGGAGTCACCTAGTGCAG | 18000 fluorescence intensity (a.u.)
33 | TGACCACTTCAAATCAATTACTGCCTGAGCTCACTTGACCCGGAGTCACCTAGTGCAG | 10300 fluorescence intensity (a.u.)
34 | TTGTATAATTAAAATGATATATTGCATTGACATTTCAATCCGGAGTCACCTAGTGCAG | 8770 fluorescence intensity (a.u.)
35 | AATGTTTAATTGGATCCAAGAGTATAATGCGTTTGAATTACGGAGTCACCTAGTGCAG | 12900 fluorescence intensity (a.u.)
36 | ATTCCTAACCCAATAATTAGGATGATGTCCATAGCATTAACGGAGTCACCTAGTGCAG | 25300 fluorescence intensity (a.u.)
37 | CTAGAACATAATTACTATATGTATGACTCCGACCTGCACACGGAGTCACCTAGTGCAG | 9450 fluorescence intensity (a.u.)
38 | TCTGATTTGTTGGTGATGTGTTGCTGTACTTCTTGTTCTGCGGAGTCACCTAGTGCAG | 36800 fluorescence intensity (a.u.)
39 | AATTATTGATTTGATGAAACTAATTTAGTATTATAAAGAGCGGAGTCACCTAGTGCAG | 51000 fluorescence intensity (a.u.)
40 | TAACGGATTGATACATCTGGTTACAAATGTGCACTACATACGGAGTCACCTAGTGCAG | 3880 fluorescence intensity (a.u.)
41 | AGGCTAATTAACAGAGAGGGGACAATATGCAACAACGTATCGGAGTCACCTAGTGCAG | 24000 fluorescence intensity (a.u.)
42 | ATCTGTCCTGATTATCATTTGTTTTATGATAAACTTACCTCGGAGTCACCTAGTGCAG | 9670 fluorescence intensity (a.u.)
